# Results from article PMC4336329 (PLoS ONE, 2015).
# The whole screen tested about 310,000 compounds, of which about 14,000 (4.5%) showed an effect of 50% or more. The effect is printed as a negative number. Some of the results follow.
# Target: human ether-à-go-go-related gene (hERG) potassium channel (human, UniProt Q12809)
# Test: primary screen, population patch clamp on CHO cells stably expressing hERG
# 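Also: peak tail current of the secondary pulse compared with the same well before compound.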
# Sequence of human ether-à-go-go-related gene (hERG) potassium channel (Q12809 whole entry, looked up): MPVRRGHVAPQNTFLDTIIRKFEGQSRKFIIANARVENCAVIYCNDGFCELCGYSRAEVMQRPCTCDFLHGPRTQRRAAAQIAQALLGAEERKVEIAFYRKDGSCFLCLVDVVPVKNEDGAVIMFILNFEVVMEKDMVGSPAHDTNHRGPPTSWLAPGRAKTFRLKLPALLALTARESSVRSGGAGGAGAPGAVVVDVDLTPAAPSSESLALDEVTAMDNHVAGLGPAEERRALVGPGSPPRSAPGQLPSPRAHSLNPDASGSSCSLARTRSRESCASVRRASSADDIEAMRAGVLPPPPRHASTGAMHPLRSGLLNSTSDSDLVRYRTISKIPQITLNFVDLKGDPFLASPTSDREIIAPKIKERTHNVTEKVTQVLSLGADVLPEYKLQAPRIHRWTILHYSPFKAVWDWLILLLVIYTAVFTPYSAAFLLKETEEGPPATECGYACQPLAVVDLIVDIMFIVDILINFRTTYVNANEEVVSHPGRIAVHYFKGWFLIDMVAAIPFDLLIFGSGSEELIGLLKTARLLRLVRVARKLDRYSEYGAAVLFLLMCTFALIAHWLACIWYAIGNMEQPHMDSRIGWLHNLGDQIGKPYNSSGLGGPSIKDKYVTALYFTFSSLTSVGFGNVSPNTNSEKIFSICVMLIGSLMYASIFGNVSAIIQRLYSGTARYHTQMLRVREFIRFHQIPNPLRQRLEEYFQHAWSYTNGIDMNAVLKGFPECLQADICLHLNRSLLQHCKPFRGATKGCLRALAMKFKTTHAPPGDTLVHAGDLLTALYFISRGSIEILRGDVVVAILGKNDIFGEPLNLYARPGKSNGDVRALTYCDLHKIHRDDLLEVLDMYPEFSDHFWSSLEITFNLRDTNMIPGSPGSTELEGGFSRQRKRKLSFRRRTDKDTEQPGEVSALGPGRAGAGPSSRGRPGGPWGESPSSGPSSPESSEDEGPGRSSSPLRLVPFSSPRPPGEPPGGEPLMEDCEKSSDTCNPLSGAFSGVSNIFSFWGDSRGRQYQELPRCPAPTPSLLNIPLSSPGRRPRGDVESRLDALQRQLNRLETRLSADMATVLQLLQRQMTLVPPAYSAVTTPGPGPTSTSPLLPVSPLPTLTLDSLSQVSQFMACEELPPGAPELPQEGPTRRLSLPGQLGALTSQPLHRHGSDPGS
row,SMILES,"hERG current change (%, negative = inhibition) at 10uM [%]"
1,COc1ccc(CNC(=O)CCC(=O)Nc2ccc(Cl)cc2)cc1,10.9
2,CC(=O)N1CCN(c2cc(N3CCc4ccccc4C3)c(F)cc2[N+](=O)[O-])CC1,-41.3
3,Cc1cc(C)n(C(=O)c2nn(C)c(C)c2[N+](=O)[O-])n1,16.4
4,O=C(Nc1ccc(Cl)cc1)N1CCC(CO)(Cc2ccccc2)CC1,-46.6
5,O=C(NCc1ccccn1)c1ccc(Cl)c(S(=O)(=O)N2CCCCC2)c1,-10.1
6,Cc1ccc(S(=O)(=O)NCCC(=O)NCc2cccnc2)cc1,13.6
7,CCOc1ccccc1-n1c(C)nc2cc(C(=O)O)ccc21,-6.4
8,O=C(Nc1ccc(-c2ccccc2)cc1)c1ccco1,19
9,CCOC(=O)NN1C(=O)c2ccccc2NC1c1ccccc1F (centres unmarked),-0.943
10,Cc1onc(-c2ccccc2Cl)c1C(=O)N(Cc1nc(-c2ccccc2)no1)C1CCCCC1,-7.51
11,CC[C@@]12C(=O)N(c3cccc(F)c3)C(=O)N1[C@H](c1ccc(Br)cc1)[C@@H]1C(=O)N(C(C)(C)C)C(=O)[C@@H]12,-4.75
12,Cc1ccc(-c2cc(-c3ccccc3)nc(Cl)n2)cc1,-6.29
13,Cc1nc(SCC(=O)NCc2ccc(F)cc2)c2c(=O)n(C)c(=O)n(C)c2n1,5.05
14,NC(=O)CC[C@@H]1NC(=O)[C@H](CO)NC(=O)c2cc([N+](=O)[O-])cc(I)c2OCC[C@@H](C(N)=O)NC1=O,3.83
15,Nc1ccc(C(=O)Nc2ccccc2N)cc1,17.1
16,COc1ccc2occ(C(=O)c3coc4ccc(O)c(CN(C)C)c34)c2c1.Cl,-72.1
17,Cn1c(=O)c2c(nc(CN3CCN(C(=O)c4ccco4)CC3)n2CCCO)n(C)c1=O,-27.6
18,CCC(CC)c1nc(NCCC(=O)O)c2ccccc2n1,6.5
19,CCn1c(SCC(=O)N(C)CC(=O)Nc2cccc(OC)c2)nnc1-c1ccco1,7.35
20,Cc1ccc(CN(Cc2cc3cc4c(cc3[nH]c2=O)OCCO4)Cc2nnnn2Cc2ccco2)cc1,-9.78
21,N/C(=N\OC(=O)c1cnn(-c2ccccc2)c1C(F)(F)F)c1ccc(C(F)(F)F)cc1,15.8
22,O=c1c(-c2ccccc2Cl)coc2c(CN3CCCCC3)c(O)ccc12,-10

row,SMILES,"hERG current change (%, negative = inhibition) at 10uM [%]"
1,C/C(CC(=O)NCc1ccco1)=N\NC(=O)Cc1ccc(Cl)cc1,13.9
2,CCOc1ccc(NC2c3ccccc3C(=O)N2Cc2ccco2)cc1 (centres unmarked),-27.9
3,Cc1cccc(C(=O)Nc2ccc(NC(=O)Cc3ccc(Cl)cc3)cc2)c1,1.26
4,Cc1sc2ncnc(OCC(=O)Nc3ccc4c(c3)OCCO4)c2c1C,3.04
5,Cc1cc(Cl)cc2c(N=Nc3ccccc3C(=O)O)c(O)[nH]c12,18.3
6,CCNc1nc(N)nc(Oc2ccc(OCc3ccccc3)nn2)n1,4.99
7,NC(N)=NCCCC(NC(=O)c1ccccc1)C(=O)Nc1ccc2ccccc2c1 (centres unmarked),12.5
8,Cc1ccc(C(=O)NC(C(=O)Nc2cccc(S(N)(=O)=O)c2)C(C)C)cc1 (centres unmarked),-2.38
9,COc1cccc(NC(=O)CN2CCN(c3nc(-c4cccc(OC)c4)cs3)CC2)c1,8.87
10,COc1cccc(NC(=O)CN2CC(c3ccccc3)CC2=O)c1 (centres unmarked),-7.6
11,CCCOc1ccc(CN2CCOCC2)cc1OC.Cl,-7.18
12,COc1ccc(C(=O)N2CCN(c3c(C)cccc3C)CC2)cc1OC,-68.8
13,Cc1ccc(C2(c3noc(CN4CCC(c5ccncc5)CC4)n3)CCCC2)cc1,-55.5
14,COc1cc2c(cc1OC)CN(C(=O)CCNS(=O)(=O)c1ccccc1F)CC2,5.9
15,CC(C)(C)OC(=O)N1CCC(CNC(=O)c2ccccc2)CC1,14.2
16,Nc1c(C(=O)NC2CCCC2)c2nc3ccccc3nc2n1N,25.1
17,CN(c1ccccc1)c1nc(N)c(C#N)c(CC#N)c1C#N,-15.3
18,COCCCn1c(SCC(=O)NC2CCCCC2)nc2ccccc2c1=O,-16.9
19,CC(Sc1nnc(-c2ccccc2F)n1C1CC1)C(=O)NC(N)=O (centres unmarked),12.1
20,CCCCCCc1nnc(NC(=O)OCC)s1,-40
21,CCOC(=O)N1CCN(C(=O)/C=C/c2ccc(C(C)(C)C)cc2)CC1,-26.1
22,Cc1ncc([N+](=O)[O-])n1CC(O)CCl (centres unmarked),4.43
